{"source": "paper PMC4336329", "about": "(PLoS ONE, 2015)", "note": "The campaign covered roughly 310,000 compounds. About 14,000 (4.5%) showed an effect of 50% or more. Effects have a minus sign here. The list shows a part of the results.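 Note: peak tail current of the secondary pulse compared with the same well before compound.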", "data": [{"molecular_target": "human ether-à-go-go-related gene (hERG) potassium channel (human, UniProt Q12809)", "sequence (Q12809 whole entry, looked up)": "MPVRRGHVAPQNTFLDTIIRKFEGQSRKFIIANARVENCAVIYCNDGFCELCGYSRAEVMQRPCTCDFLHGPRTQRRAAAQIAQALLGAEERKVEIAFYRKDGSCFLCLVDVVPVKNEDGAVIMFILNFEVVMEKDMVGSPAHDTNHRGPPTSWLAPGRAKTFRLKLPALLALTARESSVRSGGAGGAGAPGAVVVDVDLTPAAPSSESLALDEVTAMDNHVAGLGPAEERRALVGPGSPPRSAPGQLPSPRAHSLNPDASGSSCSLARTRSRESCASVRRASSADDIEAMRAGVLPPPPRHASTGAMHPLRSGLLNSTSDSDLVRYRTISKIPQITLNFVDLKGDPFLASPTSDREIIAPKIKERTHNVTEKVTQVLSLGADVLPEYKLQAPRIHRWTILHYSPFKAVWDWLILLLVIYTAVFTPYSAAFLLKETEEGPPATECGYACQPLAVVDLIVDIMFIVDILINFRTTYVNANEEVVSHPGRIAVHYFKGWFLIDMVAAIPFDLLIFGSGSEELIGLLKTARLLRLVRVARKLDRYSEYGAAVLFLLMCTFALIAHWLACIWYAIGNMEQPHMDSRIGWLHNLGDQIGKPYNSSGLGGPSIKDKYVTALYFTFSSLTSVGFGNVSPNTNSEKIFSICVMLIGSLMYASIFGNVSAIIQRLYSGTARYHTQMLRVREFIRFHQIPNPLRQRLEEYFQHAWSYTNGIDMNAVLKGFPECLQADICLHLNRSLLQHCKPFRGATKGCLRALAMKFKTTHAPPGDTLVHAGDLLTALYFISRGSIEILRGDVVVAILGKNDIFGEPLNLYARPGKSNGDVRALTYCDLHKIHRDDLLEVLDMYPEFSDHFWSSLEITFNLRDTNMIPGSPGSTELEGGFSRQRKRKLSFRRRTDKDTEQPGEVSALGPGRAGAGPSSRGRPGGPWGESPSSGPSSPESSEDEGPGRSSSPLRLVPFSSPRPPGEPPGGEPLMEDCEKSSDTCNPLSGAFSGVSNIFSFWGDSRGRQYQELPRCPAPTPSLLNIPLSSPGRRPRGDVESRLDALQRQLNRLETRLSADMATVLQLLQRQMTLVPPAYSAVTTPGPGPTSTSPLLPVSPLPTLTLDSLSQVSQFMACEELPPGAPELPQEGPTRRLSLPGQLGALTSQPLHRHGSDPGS", "test": "primary screen, population patch clamp on CHO cells stably expressing hERG", "units": {"hERG current change (%, negative = inhibition) at 10uM": "%"}, "values": [{"compound": "O=C1c2ccccc2C(=O)N1CCSc1n[nH]c(=S)s1", "hERG current change (%, negative = inhibition) at 10uM": 18.4}, {"compound": "CCOC(=O)Cc1csc(NC(=O)CSc2nc(=O)[nH]c3c2CCCC3)n1", "hERG current change (%, negative = inhibition) at 10uM": -0.299}, {"compound": "COc1cc(NC(=O)C2CCCN(S(=O)(=O)c3ccc4[nH]c(=O)ccc4c3)C2)cc(OC)c1", "note": "(centres unmarked)", "hERG current change (%, negative = inhibition) at 10uM": 14.5}, {"compound": "COc1ccccc1-c1nnc2sc(C3CCCCC3)nn12", "hERG current change (%, negative = inhibition) at 10uM": -31.5}, {"compound": "COc1cc(-c2nnc(-c3ccco3)o2)ccc1OCc1ccccc1", "hERG current change (%, negative = inhibition) at 10uM": -11.1}, {"compound": "O=C(C[n+]1cc(Br)cc2ccccc21)c1ccc(Br)cc1.[Br-]", "hERG current change (%, negative = inhibition) at 10uM": -83.3}, {"compound": "CCCc1cc(=O)oc2cc(OC(C)C(=O)NCCCn3ccnc3)ccc12", "note": "(centres unmarked)", "hERG current change (%, negative = inhibition) at 10uM": -42.1}, {"compound": "c1ccc2c(c1)NC1(CCCCC1)n1c-2nc2ccccc21", "hERG current change (%, negative = inhibition) at 10uM": -4.02}, {"compound": "CN(C)S(=O)(=O)c1ccc(C(=O)N2CCC(c3nc4ccccc4o3)CC2)cc1", "hERG current change (%, negative = inhibition) at 10uM": -37}, {"compound": "O=C(Cc1csc(NC(=O)Nc2cccc(Cl)c2)n1)NCc1ccccn1", "hERG current change (%, negative = inhibition) at 10uM": -5.14}, {"compound": "CC(=O)N1c2c(cc(Br)cc2S(=O)(=O)NCc2ccc(C)cc2)CC1C", "note": "(centres unmarked)", "hERG current change (%, negative = inhibition) at 10uM": -59.5}, {"compound": "Cc1cccc(NC(=O)c2cccc(N3C(=O)C4C5C=CC(C6CC56)C4C3=O)c2)c1", "note": "(centres unmarked)", "hERG current change (%, negative = inhibition) at 10uM": -15}, {"compound": "O=C(CN1N=C(c2ccc(Cl)cc2)CCC1=O)NCc1cccs1", "hERG current change (%, negative = inhibition) at 10uM": -42.3}, {"compound": "O=C(Nc1ccnc(-c2cccnc2)n1)c1ccc(F)cc1", "hERG current change (%, negative = inhibition) at 10uM": -4.08}, {"compound": "O=C(CNCc1ccc(F)cc1)Nc1ccc(C(=O)N2CCCCC2)cc1.O=C(O)C(=O)O", "hERG current change (%, negative = inhibition) at 10uM": 2.45}, {"compound": "CCc1ccc(N2CCN(C(=O)c3ccc4c(c3)OCO4)CC2)cc1", "hERG current change (%, negative = inhibition) at 10uM": -50.3}, {"compound": "Cc1cccnc1NC(=O)CNC(=O)c1cccs1", "hERG current change (%, negative = inhibition) at 10uM": -8.89}, {"compound": "C/C(=N\\NS(=O)(=O)c1ccc(Br)cc1)c1ccncc1", "hERG current change (%, negative = inhibition) at 10uM": -6.01}, {"compound": "N#CC1(c2c(O)nc3n(c2=O)CCCS3)CCCCC1", "hERG current change (%, negative = inhibition) at 10uM": 16}, {"compound": "Cc1cc(NS(=O)(=O)c2ccc(NC(=O)Cc3cccs3)cc2)no1", "hERG current change (%, negative = inhibition) at 10uM": 6.02}, {"compound": "COc1ccc(-c2cc(=O)oc3cc4occ(C)c4cc23)cc1", "hERG current change (%, negative = inhibition) at 10uM": -7.05}, {"compound": "Cc1cc2c(n1-c1ccc(Cl)cc1)CC(C)(C)CC2=O", "hERG current change (%, negative = inhibition) at 10uM": -11.1}, {"compound": "COc1ccc(OCC(=O)N2CCN(C(=O)COc3ccccc3)CC2)cc1", "hERG current change (%, negative = inhibition) at 10uM": -47.5}, {"compound": "O=C(COc1ccc(Br)cc1Cl)NC(=O)Nc1ccc2c(c1)OCCO2", "hERG current change (%, negative = inhibition) at 10uM": 11.3}, {"compound": "CC(C)(C)c1cc(C(=O)NNc2cccc(Cl)c2)n(Cc2ccccc2)n1", "hERG current change (%, negative = inhibition) at 10uM": -4.28}, {"compound": "O=C(O)c1ccccc1SC1CC(=O)N(c2ccccc2)C1=O", "note": "(centres unmarked)", "hERG current change (%, negative = inhibition) at 10uM": -2.1}, {"compound": "COc1ccc(C(=O)NCCc2ccc(S(N)(=O)=O)cc2)cc1OC", "hERG current change (%, negative = inhibition) at 10uM": -4}, {"compound": "CCC(=O)NC(C)c1nc2ccccc2n1C", "note": "(centres unmarked)", "hERG current change (%, negative = inhibition) at 10uM": 1.29}, {"compound": "Cc1cc(=O)oc2c(C)c(OC(C)C(=O)NCCN3CCOCC3)ccc12", "note": "(centres unmarked)", "hERG current change (%, negative = inhibition) at 10uM": 22.2}, {"compound": "O=C(NCc1cccc(C(F)(F)F)c1)C1CC(c2ccccc2C(F)(F)F)=NO1", "note": "(centres unmarked)", "hERG current change (%, negative = inhibition) at 10uM": -6.91}, {"compound": "O=C(N/N=C/c1ccc(F)c(F)c1)c1cc2c(s1)-c1ccccc1CC2", "hERG current change (%, negative = inhibition) at 10uM": 10.6}, {"compound": "O=C(O)CS(=O)(=O)c1ccc(Oc2ccc(S(=O)(=O)CC(=O)O)cc2)cc1", "hERG current change (%, negative = inhibition) at 10uM": 14.3}, {"compound": "Fc1cccc(CSc2ncnc3c2oc2ccccc23)c1", "hERG current change (%, negative = inhibition) at 10uM": 4.25}, {"compound": "O=S(=O)([O-])CCC[n+]1ccc(Oc2ccccc2)cc1", "hERG current change (%, negative = inhibition) at 10uM": 14.4}, {"compound": "O=C(c1ccc(N2CN(C(=O)c3ccco3)c3nc4ccccc4nc32)cc1)N1CCOCC1", "hERG current change (%, negative = inhibition) at 10uM": -10.1}, {"compound": "O=C(CCSc1ccccc1)Nc1nc2c(s1)COc1ccccc1-2", "hERG current change (%, negative = inhibition) at 10uM": -4.22}, {"compound": "O=C(O)/C=C/c1ccc(S(=O)(=O)N(CCO)CCO)cc1", "hERG current change (%, negative = inhibition) at 10uM": 2.91}, {"compound": "O=C(NCC[C@@H]1C[C@@H]2C=C[C@H]1C2)c1cc(COc2ccc(F)cc2F)on1", "hERG current change (%, negative = inhibition) at 10uM": 7.21}, {"compound": "Cc1ccc(-c2nn(-c3ccccc3)cc2C(=O)Nc2ccc(C)c(S(=O)(=O)N3CCOCC3)c2)cc1", "hERG current change (%, negative = inhibition) at 10uM": 7.11}, {"compound": "Cl.Fc1cccc(Nc2c3c(nc4ccccc24)CCC3)c1", "hERG current change (%, negative = inhibition) at 10uM": -68.2}, {"compound": "CC(C)CC(=O)NC(c1cccs1)c1ccc2cccnc2c1O", "note": "(centres unmarked)", "hERG current change (%, negative = inhibition) at 10uM": -11.1}, {"compound": "Cc1cc(C)n(S(=O)(=O)c2ccc(F)cc2)n1", "hERG current change (%, negative = inhibition) at 10uM": -0.435}, {"compound": "Cc1ccc(-c2[nH]ncc2C(=O)c2cccc(F)c2)c(O)c1", "hERG current change (%, negative = inhibition) at 10uM": 4.16}, {"compound": "Cc1c(CN2CCC(CO)(CCOc3ccccc3)CC2)[nH]c2c(Cl)cccc12", "hERG current change (%, negative = inhibition) at 10uM": -60.5}, {"compound": "COc1cc(/C=N/NC(=O)c2cccc(NC(=O)c3ccccc3)c2)ccc1O", "hERG current change (%, negative = inhibition) at 10uM": 0.15}, {"compound": "Cc1cc(C(=O)Nc2ccccc2N2CCOCC2)no1", "hERG current change (%, negative = inhibition) at 10uM": -14.1}, {"compound": "CC(OC(=O)Cc1c[nH]c2ccccc12)C(=O)NC1(C#N)CCCCC1", "note": "(centres unmarked)", "hERG current change (%, negative = inhibition) at 10uM": 0.6}, {"compound": "COc1ccc(CC(=O)Nc2cccc(S(=O)(=O)N3CCCCC3)c2)cc1", "hERG current change (%, negative = inhibition) at 10uM": -13.3}, {"compound": "C=CCNCCCOc1ccc(Cl)cc1C(C)(C)C.O=C(O)C(=O)O", "hERG current change (%, negative = inhibition) at 10uM": -60.8}, {"compound": "CC1CCCC(C)N1C(=O)COC(=O)CNC(=O)c1ccccc1", "note": "(centres unmarked)", "hERG current change (%, negative = inhibition) at 10uM": 2.5}, {"compound": "Fc1ccccc1N1CCN(Cc2cc(-c3ccccc3)on2)CC1", "hERG current change (%, negative = inhibition) at 10uM": -6.92}, {"compound": "CCN1CCN(Cc2c(C)[nH]c3ccc(C(=O)OC)cc3c2=O)CC1", "hERG current change (%, negative = inhibition) at 10uM": -10.7}, {"compound": "Cc1nc(N2CCOCC2)nc(Oc2ccccc2F)c1[N+](=O)[O-]", "hERG current change (%, negative = inhibition) at 10uM": -1.71}, {"compound": "Cc1ccc(-c2nc(-c3ccccc3)no2)cc1", "hERG current change (%, negative = inhibition) at 10uM": 9.46}, {"compound": "COc1cc(OC)cc(C(=O)NC(=S)Nc2ccc3[nH]c(=O)[nH]c3c2)c1", "hERG current change (%, negative = inhibition) at 10uM": -27}, {"compound": "COc1ccc(N2CCN(C(=O)c3cc4c(-c5cccc(OC)c5)nn(C)c4s3)CC2)cc1", "hERG current change (%, negative = inhibition) at 10uM": 6.88}]}]}
